The RNAGym collection of RNA variant scans (doi:10.7554/elife.90254)
The source gives no read counts; variants with many changes may rest on few reads.

B1: LINE1-mini (parent)
chain: GGCAGAGCUCAACACAGCGUGGCAAAGUGGCUGUGGCUAGACUGCC

Variants of: B1
Experiment: self-cleavage, relative activity (ratio to wild type); higher = more cleavage; in vitro, sequencing; the parent is a self-cleaving ribozyme

For GGCAGAGCUCAACGCAGCGUGGCAAAGUGGCUGUGGCUUGACUGCA [A14G A39U C46A], which self-cleavage is on record?
Its self-cleavage is 0.42.

With GGCAGAGCUCAACACAGAGUGGCAAAGUGGCUGCGGCUAGACUCCC [C18A U34C G44C] as the variant, how does the self-cleavage read?
Its self-cleavage is 0.07.

Which self-cleavage does the source give for GGUAGAGCUCAACAAAGCGUGGAAAAGUGGCUGUGGCUAGACUGCC [C3U C15A C23A] here?
The self-cleavage was 0.01.

Which self-cleavage does the source give for UGCAGUGCUCAACACAGCGUGGCUAAGUGGCUGUGGCUAGACUGCC [G1U A6U A24U] here?
The self-cleavage was 0.51.

With GGCAGAGCUCAACACAGCGUUGCAAAGUGGCUGUGUCUAGACUGUC [G21U G36U C45U] as the variant, how does the self-cleavage read?
Its self-cleavage is 0.08.

With GGCAGAGCUCAACACAGCGUGCCAAAGUGGCUGUGGCUAGACUGAU [G22C C45A C46U] as the variant, how does the self-cleavage read?
Its self-cleavage is 0.13.

Which self-cleavage does the source give for GGCAGAGCUCAACACAGCGUGGCAAGGUGUCUGUGGCUAAACUGCC [A26G G30U G40A] here?
Its self-cleavage is 0.17.

Which self-cleavage does the source give for GGCAGAUCUCAACACAGCGUGGCAAUGUGGCUGUGGCAAGACUGCC [G7U A26U U38A] here?
Its self-cleavage is 0.06.

Which self-cleavage does the source give for GACAGAGCUCAAAACACCGUGGCAAAGUGGCUGUGGCUACUCUGCC [G2A C13A G17C G40C A41U] here?
The self-cleavage was 0.1.

For GGCAUAGCUUAACACAGCGUGGAAAAGGGGCUGUGGCUAGACUGCC [G5U C10U C23A U28G], which self-cleavage is on record?
Its self-cleavage is 0.03.

Which self-cleavage does the source give for GGCAGAGCUCAACACAGCGUGCCUAAAUGGCUGUGGCUAGACUGCC [G22C A24U G27A] here?
The self-cleavage was 0.38.

For CGCACAGCUCAACACAGCGUGGGAAAGUGGGUGUGCCUAGACUGCC [G1C G5C C23G C31G G36C], which self-cleavage is on record?
The self-cleavage was 0.01.

Which self-cleavage does the source give for GGCUGAGCUCAACACAGCGUGUCAAAGUGGCUGUGGCUAGAAUACC [A4U G22U C42A G44A] here?
Its self-cleavage is 0.03.

With GGCAGAGCUAAACACAGCGUAGGCAAGUGGCUGUGGCUAGACUGCC [C10A G21A C23G A24C] as the variant, how does the self-cleavage read?
The self-cleavage was 0.02.

Which self-cleavage does the source give for GGCAGAGCACAACACAGCGUGGCAAAGUGAUUGGGGCUAGACGGCC [U9A G30A C31U U34G U43G] here?
The self-cleavage was 0.

For GGCAUAGCUCAACACAGCGUUGCAAAGUGGCUCUGGCUAGGCUGCC [G5U G21U G33C A41G], which self-cleavage is on record?
Its self-cleavage is 0.09.

With GGCCGCGCUCAACACAGCGUGGCAAAGUGGCUCUGGCUAGACUGCC [A4C A6C G33C] as the variant, how does the self-cleavage read?
The self-cleavage was 0.12.

For GGCAGAGCUCAAGACAGUGUGGCAAAGUGGCUGUGGCUAAACUGAC [C13G C18U G40A C45A], which self-cleavage is on record?
The self-cleavage was 0.02.

Which self-cleavage does the source give for GGGAGAACUCAACACAGCGUGGCAAAGUGGUUGUGGCUAGACUGCC [C3G G7A C31U] here?
The self-cleavage was 0.13.

For GGCAGAGCUCAAUACACCGUAGCAAAGUGGCUCUGGCUAGACUGCC [C13U G17C G21A G33C], which self-cleavage is on record?
The self-cleavage was 0.03.

With GGCAGAGCUCAACACAGCCAGGCAAAGUGGCUGUGGCCAGACUGCC [G19C U20A U38C] as the variant, how does the self-cleavage read?
The self-cleavage was 0.09.

For GGCAGAGCUAGACACAGCGUGGCAAAUUGGCUGUGGCUAGACUGCC [C10A A11G G27U], which self-cleavage is on record?
Its self-cleavage is 0.04.

Which self-cleavage does the source give for GGCAGAGCGCAAUACAGCGUGGCAAAGUGGCUGUGGCUGGACUGCC [U9G C13U A39G] here?
Its self-cleavage is 0.02.

For GGCAGAGAUCCACACAGCGUGGCAGAGUGGCUGUGGCUAGACUGCC [C8A A11C A25G], which self-cleavage is on record?
The self-cleavage was 0.04.

With GCUAGAGCUCAACACAGCGUGGCCAAGUGGCUGUGGCUAGACUGCC [G2C C3U A24C] as the variant, how does the self-cleavage read?
The self-cleavage was 0.05.

For GGCAGGGCUCAACACAGCGUGGCAAAAUGUCUGUGGCUAGAUUUCC [A6G G27A G30U C42U G44U], which self-cleavage is on record?
Its self-cleavage is 0.75.

Which self-cleavage does the source give for GGCAGAGCUCAAUACAGCGUGGCAAAGUGGCCGUGCCUAGACUGCC [C13U U32C G36C] here?
Its self-cleavage is 0.09.

With GGCAGAGCUCAACACAGUUAGACAAAGUGGCUGUGGCUACACUUCC [C18U G19U U20A G22A G40C G44U] as the variant, how does the self-cleavage read?
Its self-cleavage is 0.03.

Which self-cleavage does the source give for UGCAGAGCUCAACACAGCGUGGCAAAGUCGCUGUGGCUAGACAGUC [G1U G29C U43A C45U] here?
The self-cleavage was 0.

For GGCAGAGGUCAACAGAGCGUGGCAAAGUGGUUGUGGCUAGACUGCC [C8G C15G C31U], which self-cleavage is on record?
Its self-cleavage is 0.02.

Which self-cleavage does the source give for GGCAAAGCUCAACACAGAGUGGCAAAAUGGCUGUGCCUAGAGAGCC [G5A C18A G27A G36C C42G U43A] here?
Its self-cleavage is 0.01.

Which self-cleavage does the source give for GGCACAGCUCAAAACAGCGUGGCAAAGUGGCUGUCGCUAGACUGCC [G5C C13A G35C] here?
Its self-cleavage is 0.08.

Which self-cleavage does the source give for CGCUGAGCUCAAUACAACGUGGCGAAGUGGAUGUGGCGAGACUGCG [G1C A4U C13U G17A A24G C31A U38G C46G] here?
Its self-cleavage is 0.01.

For GGCAGAGCUCAACCCAGCGUGGCAAAGUGGAUGUGGCUAAACUGCC [A14C C31A G40A], which self-cleavage is on record?
Its self-cleavage is 0.02.

With GGCAGAGCUUAAAACAGCGUGGCAAAGUGGCUGUGGCUAGACUGUC [C10U C13A C45U] as the variant, how does the self-cleavage read?
The self-cleavage was 0.06.

With GGCAGGGCUCAACACACCGUGGCAAAGUGGCUGAGGCUAGACUGCC [A6G G17C U34A] as the variant, how does the self-cleavage read?
Its self-cleavage is 0.04.

Which self-cleavage does the source give for GGCAGAGCUCUACACAGCGUGGCAAAGUGGCUGUUGCUAGACUGCU [A11U G35U C46U] here?
The self-cleavage was 0.03.

With UGCAGAGCUCAACACAACGUGGCUAAGUGGCGGUGGCUAGAUUGCC [G1U G17A A24U U32G C42U] as the variant, how does the self-cleavage read?
Its self-cleavage is 0.05.

For GGCAGAGUUCAACACAGCGUGGCUAAGUGGCUGUGGCGAGACUGCU [C8U A24U U38G C46U], which self-cleavage is on record?
Its self-cleavage is 0.02.

Which self-cleavage does the source give for GGCAGAGAGCAACACAGCGUGGCGAAGUGGCUGCGGCUAGACUGCC [C8A U9G A24G U34C] here?
Its self-cleavage is 0.03.

For AGCAGAGCUCAACACAGCGUGACAAAGUGUCUGUGGCUAGACUGCC [G1A G22A G30U], which self-cleavage is on record?
The self-cleavage was 0.75.

Which self-cleavage does the source give for GAUAAAGCUCAACACAGCGUGGCAAAGUGGCUGUGGCUAGACUCCC [G2A C3U G5A G44C] here?
The self-cleavage was 0.13.

For GGCAGAGCUCAACACAGCGUAGCAAAGUAGCUGUGGAUAGACUGCC [G21A G29A C37A], which self-cleavage is on record?
The self-cleavage was 0.44.

Which self-cleavage does the source give for GGCAGAACUCAACAUAGCGUGGCAAAGUGGCUGUGUCUAGACUGCA [G7A C15U G36U C46A] here?
The self-cleavage was 0.09.

For GGCAGAACUCGACACAGCGUGGCAAAGUGGCCGUGGCUAGACUGCC [G7A A11G U32C], which self-cleavage is on record?
Its self-cleavage is 0.01.

For CGCAGAGCUGAACACACCGUGGCAGAGUGGCUGUGGCUAGACUGCC [G1C C10G G17C A25G], which self-cleavage is on record?
Its self-cleavage is 0.

For GGCAGAGCUCAACUCAUAGUGGCAAAGUGGCUGUGGCUAGACUGCC [A14U G17U C18A], which self-cleavage is on record?
The self-cleavage was 0.03.

With GGCAGAGCUCAAGACAGCGUGGCAAAGUGGCUGUGGCAGGACUGCC [C13G U38A A39G] as the variant, how does the self-cleavage read?
Its self-cleavage is 0.02.

Which self-cleavage does the source give for GGCAGAGCUCGACACACCGUGGCAAAGUAGCUGUGGCUAGACUGCC [A11G G17C G29A] here?
Its self-cleavage is 0.01.

Which self-cleavage does the source give for GGAAGACCUCAAGAUAGCGUGGCAAAGUGGCGGAGGCUAGACUGAC [C3A G7C C13G C15U U32G U34A C45A] here?
The self-cleavage was 0.03.

Which self-cleavage does the source give for GGCAGAGCCCAACACAGCGUGGCAAAGUGGCUGUGGCUAGACUGGG [U9C C45G C46G] here?
The self-cleavage was 0.02.

For GACAGAGGUCAACACAGCUUGGCAAAGUGGCUGCGGCUAGACUGCC [G2A C8G G19U U34C], which self-cleavage is on record?
The self-cleavage was 0.07.

With GGCAGAGCUCAACACAGCGUGGCAAAGUGGCUCGGGCUAGAGUGAC [G33C U34G C42G C45A] as the variant, how does the self-cleavage read?
The self-cleavage was 0.11.

For GGCAAAGAUCAACACAGCGUGGCAAAGUGGCUGUGGCAACACUGCC [G5A C8A U38A G40C], which self-cleavage is on record?
The self-cleavage was 0.82.

For GGCGGGGCUCAACACAGCGUGGCAAAGUGACUUUGUCUAGACUGCC [A4G A6G G30A G33U G36U], which self-cleavage is on record?
The self-cleavage was 0.23.

With GGCUGAGCUCAUCACAGCGUAGCAAAGUGGUUGUGGCUAAACUGCU [A4U A12U G21A C31U G40A C46U] as the variant, how does the self-cleavage read?
Its self-cleavage is 0.07.
